In PubChem BioAssay AID602310 (National Center for Advancing Translational Sciences (NCATS), 2012):
Where “and” joins values, the source holds several entries; their conditions need not be identical. Identical values can stand only once. Among all 410,000 compounds or so, about 310 (0.076%) were called active. This list was built around the results that the source calls inconclusive (neither active nor inactive); the mix of calls is not that of the screen. The call rests on the fitted dose curve; in most records, active means well fitted curve in the direction sought with a large enough effect; inconclusive means small, poorly fitted or top-dose-only effect; inactive means flat fitted curve, though single readings scatter. Potencies beside an inconclusive call are fits to weak or partial responses and may not hold up.

Each compound was assayed against DNA dC->dU-editing enzyme APOBEC-3G (Homo sapiens) (UniProt Q9HC16) (assay: qHTS for Inhibitors of Vif-A3G Interactions: qHTS). Conditions: HeLa A3G-eYFP + Vif (tagged APOBEC3G with the HIV-1 protein that degrades it), YFP fluorescence, overnight; series mostly up to 46.1 µM; activity, negative = active: at the top concentration.
Sequence of UniProt Q9HC16 (Q9HC16 whole entry, looked up): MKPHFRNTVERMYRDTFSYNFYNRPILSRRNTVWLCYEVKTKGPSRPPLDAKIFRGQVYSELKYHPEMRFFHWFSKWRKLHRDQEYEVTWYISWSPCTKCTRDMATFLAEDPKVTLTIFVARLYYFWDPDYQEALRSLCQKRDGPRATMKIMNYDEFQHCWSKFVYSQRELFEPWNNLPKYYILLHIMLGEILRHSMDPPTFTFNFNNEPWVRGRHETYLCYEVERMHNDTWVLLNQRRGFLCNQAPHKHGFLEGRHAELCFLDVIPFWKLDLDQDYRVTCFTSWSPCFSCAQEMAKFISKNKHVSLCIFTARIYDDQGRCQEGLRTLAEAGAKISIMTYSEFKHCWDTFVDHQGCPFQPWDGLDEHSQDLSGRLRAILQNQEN
How it was run: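 Read-out is eYFP fluorescence (Ex 488/Em 500-530) from Vif-expressing HeLa A3G-eYFP cells; more signal means A3G escaped Vif-mediated degradation. Cells plated overnight, compound pinned in, incubated overnight at 37 deg C.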
Further: nearly all actives have a fitted effect of over 60% in size.
On the % scale 0 is the no-effect control and ±100 the full control effect; potency means the concentration at half of the fitted maximal effect; tags describe the fitted curve by direction and shape.
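Wherever activity, negative = active is given: hits raise eYFP signal because A3G escapes Vif-driven loss.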

| Structure (SMILES) | Potency | activity, negative = active |
| --- | --- | --- |
| CC[n+]1c(/C=C/N(C)c2ccccc2)n(-c2ccccc2)c2ccc(-c3nc4ccccc4s3)cc21 | inconclusive: 22.4 µM [inhibitor, single point] |  |
| N#Cc1cc2c(=O)n3ccccc3nc2n(-c2ccccc2Cl)c1=O | inconclusive: 22.4 µM [inhibitor, single point] |  |
| Cc1cc(Cl)ccc1-c1cc2nc(NCCCN(C)C)n(C)c(=O)c2s1 | inconclusive: 35.5 µM [inhibitor, single point] |  |
| C=CCS(=O)(=O)c1nc2ccccc2s1 | inconclusive: 17.8 µM [inhibitor, single point] |  |
| CCOC(=O)Cc1ccc(Nc2nc3cc(-c4sccc4C)sc3c(=O)n2C)cc1 | inconclusive: 2.24 µM [inhibitor, full curve, poor fit] |  |
| Cc1ccc(S(=O)(=O)ON2C(=O)c3ccccc3C2=O)c(C)c1 | inconclusive: 14.1 µM [inhibitor, single point] |  |
| Cc1cccc(N2CCN(C(=O)NCc3ccc(Cl)cc3)CC2)c1 | inconclusive: 10 µM [inhibitor, partial curve] |  |
| COC(=O)c1cc(NC(=O)c2ccccc2)c(=O)oc1/C=C/Nc1ccc(Oc2ccccc2)cc1 | inconclusive: 7.08 µM [inhibitor, partial curve, poor fit] |  |
| CCOC(=O)c1c(-c2ccc(OC)cc2)csc1/N=C/C1=C(O)CCCC1=O | active: 22.4 µM |  |
| CCCOc1ccc(C2c3c(oc4ccccc4c3=O)C(=O)N2c2nnc(C(C)C)s2)cc1 (stereo not given) |  | inactive: -2.4% |
| CC1=C(C#N)C(c2ccccc2)C2=C(N1)c1ccccc1C2=O (stereo not given) | inconclusive: 1.41 µM [inhibitor, full curve] |  |
| CC[C@@H]1CC=C[C@H]2[C@H]1C(=O)N(Cc1ccccc1)[C@H]2c1ccoc1 | inconclusive: 22.4 µM [inhibitor, single point] |  |
| O=C(CCN1C(=O)/C(=C/C=C/c2ccccc2)SC1=S)Nc1cccnc1 |  | inactive: -16.7% |
| CC(C)C(Cl)=NOC(=O)Nc1ccc(F)cc1 | inconclusive: 35.5 µM [inhibitor, single point] |  |
| Cc1ccc(CNC(=O)Cn2ccc3cc(S(=O)(=O)N4CCCC4)ccc32)o1 |  | inactive: -6.81% |
| O=C(CCCN1C(=O)/C(=C/c2ccco2)SC1=S)Nc1ccccc1C(=O)O | inconclusive: 15.8 µM [inhibitor, single point] |  |
| O=[N+]([O-])C(=C1Nc2ccccc2N1)/C(Cl)=C(/Cl)Br |  | inactive: 0.674% |
| COC(=O)[C@]1(CC(C)C)N[C@H](c2ccc(SC3CCCCC3)c(OC)c2)[C@@H]2C(=O)N(C)C(=O)[C@@H]21 |  | inactive: 1.08% |
| COc1ccc(-c2cnc3c(c2)CCC3(C#N)C#N)cc1 | inconclusive: 10 µM [inhibitor, partial curve, poor fit] |  |
| COc1ccc(-n2c(C)cc(C(=O)CN3C(=O)C(=O)N(Cc4ccccc4)C3=O)c2C)cc1 | inconclusive: 14.1 µM [inhibitor, single point] |  |
| Cc1c(C(=O)N/N=C/c2ccccc2)[nH]c2ccc(Cl)cc12 | inconclusive: 2.24 µM [inhibitor, full curve] |  |
| COc1cc(/C=C/C(=O)N2C(=O)c3cccc(N)c3C2=O)cc(OC)c1OC |  | inactive: -13.2% |

| Structure (SMILES) | Potency | activity, negative = active |
| --- | --- | --- |
| Cc1ccc2c(=O)n3c(nc2c1)C(Cc1ccccc1)NC(=O)c1cc2ccccc2cc1-3 (stereo not given) | inconclusive: 5.62 µM [inhibitor, full curve] |  |
| O=C(Cn1cnc2sc(-c3ccccc3)cc2c1=O)NCc1ccco1 | inconclusive: 10 µM [inhibitor, partial curve] |  |
| COc1cc(/C=C/c2ccc3cccc(O)c3n2)cc(OC)c1OC | inconclusive: 15.8 µM [inhibitor, single point] |  |
| CC(C)(C)c1nc(SCC(=O)Nc2nc3c(s2)CCCC3)c2ccccc2n1 |  | inactive: -1.13% |
| Cc1cc(C)cc(Oc2nc(C(F)(F)F)nc3ccccc23)c1 | inconclusive: 11.2 µM [inhibitor, partial curve] |  |
| COc1cccc(Nc2ncccc2C(=O)NCc2ccccc2)c1 | inconclusive: 12.6 µM [inhibitor, partial curve, poor fit] |  |
| S=C(Nc1ccccn1)c1ccccn1 | inconclusive: 31.6 µM [inhibitor, single point] |  |
| CC(=O)Cn1ncc(Br)c(Br)c1=O | inconclusive: 12.6 µM [inhibitor, partial curve, poor fit] |  |
| CCOc1ccc(NS(=O)(=O)c2ccc3c(c2)CCN3C(=O)C2CCC2)cc1 |  | inactive: 0.108% |
| COc1ccc(-c2cc(NC(C)=O)c3ncc(-c4cc(OC)c(OC)c(OC)c4)n3c2)cn1 | inconclusive: 1.26 µM [inhibitor, full curve] |  |
| COc1cc(OC)c(OC)cc1/C=C/c1ccnc2ccccc12 | inconclusive: 4.47 µM [inhibitor, full curve] |  |
| COc1ccc(-n2nc3c(N4CCC(C(=O)N5CCC(C)CC5)CC4)nnc(C)c3c2C)cc1 | inconclusive: 14.1 µM [inhibitor, single point] |  |
| Cc1nc(-c2ccccc2)sc1C(=O)/C=C/c1ccc(Cl)cc1 |  | inactive: -0.186% |
| O=C(N/N=C/c1cccnc1)c1cc(-c2cccs2)nc2ccccc12 | inconclusive: 7.08 µM [inhibitor, full curve] |  |
| COc1c(CC=C(C)C)c(O)cc2oc(=O)c3c4ccc(O)cc4oc3c12 |  | inactive: -0.598% |
| CCN(CC)c1ccc(/C=c2\sc3nc4ccccc4n3c2=O)c(O)c1 | inconclusive: 22.4 µM [inhibitor, single point] |  |
| CCOc1ccc(/C=N/N2C(=O)C(CC(=O)Nc3ccc(F)cc3F)SC2=NC)cc1OC (stereo not given) | inconclusive: 35.5 µM [inhibitor, single point] |  |
| CCSC1=N/C(=C\C=C2/Oc3ccccc3N2CC)C(=O)S1 | active: 7.08 µM |  |
| CCOc1ccccc1NC(=O)COC(=O)CC(C)(C)CC1=NS(=O)(=O)c2ccccc2N1 | inconclusive: 15.8 µM [inhibitor, single point] |  |
| Cc1cccc(/C=C/C(=O)c2ccc(NC3=NCCCS3)cc2)c1 | inconclusive: 10 µM [inhibitor, partial curve] |  |
| CC(Oc1cccc(Cl)c1)C(=O)Nc1nc(-c2ccccn2)cs1 (stereo not given) | inconclusive: 35.5 µM [inhibitor, single point] |  |
| CCOC(=O)N1CCN(C(=O)c2[nH]c(C(F)(F)F)nc2-c2ccccc2)CC1 | inconclusive: 10 µM [inhibitor, partial curve] |  |

| Structure (SMILES) | Potency | activity, negative = active |
| --- | --- | --- |
| COc1cccc(-c2csc3ncnc(Sc4nnnn4C)c23)c1 | inconclusive: 8.91 µM [inhibitor, partial curve, poor fit] |  |
| CN1CCc2nc3sc(C(=O)c4ccc(F)cc4)c(N)c3cc2C1 |  | inactive: -17.5% |
| CCOC(=O)C(C(=O)OCC)C1OC(=O)c2cc3c(cc21)C(=O)OC3C(C(=O)OCC)C(=O)OCC (stereo not given) | inconclusive: 17.8 µM [inhibitor, single point] |  |
| CCOc1ccc(CCNC(=O)Cn2c(-c3cccs3)cc3ccccc32)cc1 |  | inactive: 1.29% |
| CCOc1ccc(NC(=O)c2cc(SC)ccc2Cl)cc1 | inconclusive: 15.8 µM [inhibitor, single point] |  |
| O=C1/C(=C/c2ccc(O)c(O)c2)Oc2cc(O)ccc21 | inconclusive: 25.1 µM [inhibitor, single point] |  |
| COc1ccc(C(=O)OC(COc2ccccc2)Cn2ccnc2)cc1 (stereo not given) |  | inactive: -0.971% |
| O=S(=O)(Nc1cc2nc3ccccc3nc2n1Cc1ccccc1)c1ccc(Cl)cc1 | inconclusive: 15.8 µM [inhibitor, partial curve, poor fit] |  |
| O=[N+]([O-])c1ccc(Nc2ccccc2O)c([N+](=O)[O-])c1 | inconclusive: 22.4 µM [inhibitor, single point] |  |
| O=C(NC(=S)NC1C2CC3CC(C2)CC1C3)c1ccccc1 (stereo not given) |  | inactive: -0.21% |
| CCOC(=O)c1ccc(-c2c(-c3cc(OC)c(OC)c(OC)c3)noc2C)cc1F | inconclusive: 562 nM [inhibitor, full curve, poor fit] and inconclusive: 631 nM [inhibitor, full curve, poor fit] |  |
| CC(C)Oc1ccccc1C1CC(=O)Nc2cc3c(cc21)OCCO3 (stereo not given) | inconclusive: 0.562 µM [inhibitor, full curve, poor fit] |  |
| Cc1ccc(NC(=O)c2sc3nc(-c4ccncc4)ccc3c2N)cc1 | inconclusive: 3.98 µM [inhibitor, single point] |  |
| Cn1c(NC(=O)c2cccnc2)nc2ccccc21 | inconclusive: 25.1 µM [inhibitor, single point] |  |
| Cc1c(Cc2ccc3c(c2)OCO3)sc(NC(=O)c2ccccc2)c1C(N)=O | inconclusive: 35.5 µM [inhibitor, single point] |  |
| C[C@H](O)[C@@H]1C(=O)N2CCc3ccc(-c4cccc(F)c4)cc3[C@@H]2C[C@@H]1N(C)C(=O)C(C)(C)C | inconclusive: 11.2 µM [inhibitor, partial curve] |  |
| N#Cc1c(-c2ccccc2)c(-c2ccccc2)nn(CC(=O)NNC(=O)Nc2ccc(Cl)cc2)c1=O | inconclusive: 3.55 µM [inhibitor, partial curve, poor fit] |  |
| Cc1cc(C)c(S(=O)(=O)N2CCCCC2CCNC(=O)C(=O)NCc2ccco2)c(C)c1 (stereo not given) | inconclusive: 12.6 µM [inhibitor, partial curve, poor fit] |  |
| Cc1cc(Br)ccc1NC(=O)C1C2CCC(O2)C1C(=O)O (stereo not given) |  | inactive: 2% |
| CCC(=O)N/N=C/c1ccc(-c2ccc([N+](=O)[O-])cc2)o1 |  | inactive: -0.633% |
| c1ccc2c(c1)CC/C2=N/Nc1nc2ccccc2[nH]1 | inconclusive: 31.6 µM [inhibitor, single point] |  |
